# Measured values as given in PubChem BioAssay AID2147 (National Center for Advancing Translational Sciences (NCATS), 2009).
# The campaign covered roughly 230,000 compounds. About 3,600 (1.6%) were called active. Inconclusive means that the source gave no clear call. Such entries were picked first, then a sample of the others. Calls come from the whole dose curve; as a rule, active = well fitted inhibition curve with a large enough effect (not every such curve was filed as active); inconclusive = small, poorly fitted or top-dose-only effect, or another doubt; inactive = no such curve, though single readings can be large or run the other way. Where the call is inconclusive, the potency comes from a doubtful curve fit.
# Target: Lysine-specific demethylase 4E (Homo sapiens) (UniProt B2RXH2)
# Sequence of UniProt B2RXH2 (B2RXH2 whole entry, looked up, the tested form may be a part): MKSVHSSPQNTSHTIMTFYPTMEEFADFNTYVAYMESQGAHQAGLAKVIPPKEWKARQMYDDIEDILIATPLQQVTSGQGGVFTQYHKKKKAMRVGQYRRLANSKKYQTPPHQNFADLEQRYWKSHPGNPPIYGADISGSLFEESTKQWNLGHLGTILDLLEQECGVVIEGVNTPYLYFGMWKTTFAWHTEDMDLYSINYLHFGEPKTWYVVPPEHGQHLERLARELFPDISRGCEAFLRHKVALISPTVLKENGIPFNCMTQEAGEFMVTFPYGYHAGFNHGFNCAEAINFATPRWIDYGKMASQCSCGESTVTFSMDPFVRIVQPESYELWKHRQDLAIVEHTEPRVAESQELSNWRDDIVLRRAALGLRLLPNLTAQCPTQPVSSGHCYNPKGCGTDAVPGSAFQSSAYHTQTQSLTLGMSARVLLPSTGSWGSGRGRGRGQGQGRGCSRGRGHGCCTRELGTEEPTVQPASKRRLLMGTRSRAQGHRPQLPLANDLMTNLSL
# Assay: qHTS Assay for Inhibitors of Human Jumonji Domain Containing 2E (JMJD2E)
# Details: JMJD2E catalytic domain, FDH-coupled NADH fluorescence (FDH is formaldehyde dehydrogenase); series mostly up to 57.1 µM; activity change, negative = inhibition: at the top concentration
# Note: nearly all actives have a fitted effect of over 50% in size.
# Potency is the fitted concentration of half-maximal effect; tags give direction and shape of the fitted curve.
# 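Throughout, for activity change, negative = inhibition: 0% = wells with enzyme and -100% = buffer wells without enzyme.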
Compound,"activity change, negative = inhibition",Potency
CC1(C)CC(=O)C2=C(C1)OC(N)=C(C#N)C2c1cccs1 (configuration not stated),inactive: 10.5%,
CC1CCN(CCC(=O)Nc2ccc3c(c2)OCCO3)CC1,,"inconclusive: 25.1 µM [inhibitor, single point]"
COC(=O)c1cc(NC(=O)c2cc(-c3ccc(OC)cc3)oc2C(F)(F)F)ccc1N1CCOCC1,,"inconclusive: 31.6 µM [inhibitor, single point]"
CN(C)S(=O)(=O)c1cc(NC2CC(=O)N(c3ccc(F)cc3)C2=O)ccc1Cl (configuration not stated),,"inconclusive: 3.55 µM [inhibitor, single point]"
C=CCOC(=O)C1=C(C)NC(C)=C(C(=O)OCC=C)C1c1ccc(C)o1,inactive: -5.55%,
CCOC(=O)C1=C(C)N(c2ccccc2)C(=O)/C1=C\c1cccs1,inactive: -4.1%,
CC(C)Cn1c(N)c(C(=O)COC(=O)c2cc(C(F)(F)F)nc3ccccc23)c(=O)n(C)c1=O,,"inconclusive: 28.2 µM [inhibitor, single point]"
CC(C)(Oc1ccc(Cl)cc1)C(=O)OCn1nnc2ccccc2c1=O,inactive: 2.55%,
Cc1cc(C)c2c(N)c(C(=O)Nc3nccs3)sc2n1,,"inconclusive: 31.6 µM [inhibitor, partial curve]"
COc1cc(C(=O)Nc2nc(-c3ccc(Cl)cc3)c(C)s2)ccc1OCC(=O)Nc1ccc(F)cc1,,"inconclusive: 35.5 µM [inhibitor, single point]"
COCC(C)NC(=O)CCS(=O)(=O)c1nc(-c2ccc(OC)cc2)cc(C(F)(F)F)n1 (configuration not stated),,"inconclusive: 31.6 µM [inhibitor, partial curve]"
CN(C)c1ccc(/C=[N+](\[O-])C2SC(=S)N(C)C2(C)C)cc1 (configuration not stated),,"inconclusive: 39.8 µM [inhibitor, single point]"
CCOc1cccc2sc(NN)nc12,,"inconclusive: 35.5 µM [inhibitor, single point]"
O=C1/C(=C\c2cccnc2)CCc2ccccc21,inactive: -5.85%,
CCOC(=O)/C(C#N)=C/c1cc(C)n(-c2ccc(C)cc2)c1C,,"inconclusive: 39.8 µM [inhibitor, single point]"
O=C(Cn1c(=O)oc2cccnc21)Nc1ccccc1Oc1ccc(Cl)cc1Cl,,"inconclusive: 35.5 µM [inhibitor, single point]"
O=C(O)c1cccc(NC(=O)C2CC(=O)N(Cc3ccccc3)C2)c1 (configuration not stated),inactive: -0.776%,
CCOc1ccc2cc(S(=O)(=O)N3CCOCC3)ccc2c1,,"inconclusive: 39.8 µM [inhibitor, single point]"
COc1ccc(-c2cn3cccnc3n2)cc1NS(=O)(=O)c1ccccc1,,"inconclusive: 22.4 µM [inhibitor, partial curve]"
COc1ccccc1[C@@H]1C(c2cccc(Cl)c2)=NN(c2ccc(Br)cc2)[C@H]1C(=O)N1CCOC1=O,,"inconclusive: 2.82 µM [inhibitor, partial curve]"
CN(C)CCCN1C(=O)c2oc3ccc(Cl)cc3c(=O)c2C1c1cccnc1 (configuration not stated),inactive: -0.0966%,

Compound,"activity change, negative = inhibition",Potency
COc1ccc(C(=O)N2CCN(C3CCN(Cc4ccccc4)CC3)CC2)cc1OC,,"inconclusive: 28.2 µM [inhibitor, single point]"
COc1ccc(CNS(=O)(=O)c2ccc(F)c(C(=O)Nc3ccc(OC)cc3)c2)cc1,,"inconclusive: 39.8 µM [inhibitor, single point]"
COc1ccc2c(c1)c(C(=O)N/N=C/c1cccc(O)c1)c(C)n2C,inactive: 0.446%,
CCc1cc2ccc(C)cc2nc1SCC(=O)NNC(=O)c1ccco1,inactive: -0.262%,
COC(=O)c1cc(COc2ccc3c(c2)oc(=O)c2ccccc23)c(C)o1,,"inconclusive: 25.1 µM [inhibitor, single point]"
COc1ccc(-c2cc(C(=O)NC3=NCCS3)c3ccccc3n2)cc1OC,,"inconclusive: 22.4 µM [inhibitor, single point]"
CCc1c(C)sc(NC(=O)C2CCCCC2C(=O)O)c1C(N)=O (configuration not stated),,"inconclusive: 39.8 µM [inhibitor, single point]"
Cc1nc2ccccn2c1-c1nnco1,,"inconclusive: 31.6 µM [inhibitor, partial curve]"
COc1cc(/C=C2/SC(=Nc3ccc(O)cc3)NC2=O)cc(OC)c1O,,"inconclusive: 0.178 µM [inhibitor, single point]"
COc1ccc(Oc2ccc(C(F)(F)F)cc2NC(=O)c2ccc(OC)cc2)cc1,,"inconclusive: 35.5 µM [inhibitor, single point]"
COC(=O)c1cccc(S(=O)(=O)N(Cc2ccco2)Cc2cc3cc(OC)ccc3[nH]c2=O)c1,,"inconclusive: 28.2 µM [inhibitor, partial curve]"
O=C(Cn1c2ccccc2c(=O)c2ccccc21)N/N=C/c1cc([N+](=O)[O-])ccc1N1CCCCCC1,inactive: -14.9%,
Cc1cc(C)c(C#N)c(=N)o1,,"inconclusive: 25.1 µM [inhibitor, partial curve]"
CCOc1ccc(OCC)c(NC(=O)CN2CCN(c3cccc(C)c3C)CC2)c1,,"inconclusive: 31.6 µM [inhibitor, single point]"
Cc1nc(SCC(=O)Nc2cc(C(N)=O)cc(C(N)=O)c2)c2c(C)c(C)sc2n1,,"inconclusive: 31.6 µM [inhibitor, single point]"
CN(C)/N=N/c1nc[nH]c1C(N)=O,,"inconclusive: 35.5 µM [inhibitor, single point]"
O=C(Nc1ccccc1F)N(CCCN1CCOCC1)Cc1cc2cc3c(cc2[nH]c1=O)OCCO3,,"inconclusive: 31.6 µM [inhibitor, partial curve]"
OCCN1CCN(c2cc(C(F)(F)F)nc3ccccc23)CC1,inactive: 2.89%,
Cc1ccc(C)c(N2CCN(C(=S)Nc3ccc4nc(N5CCOCC5)cc(C)c4c3)CC2)c1,,"inconclusive: 15.8 µM [inhibitor, partial curve]"
Cc1c(-c2nc(-c3ccc(C(C)(C)C)cc3)no2)n(C)oc1=O,,"inconclusive: 31.6 µM [inhibitor, single point]"
CC(=O)Oc1cc(OC(C)=O)c2c(=O)c(-c3ccc4c(c3)OCCCO4)c(C)oc2c1,,"inconclusive: 22.4 µM [inhibitor, partial curve]"
